Results from article PMC7089965 (Frontiers in Microbiology, 2020).
Read-outs that look alike come from different tables or passages of the source. Where a SMILES comes first, the peptide text is derived from it. [ ]: non-standard residue; d: D form. Nspe = C[C@H](NCC(=O)O)c1ccccc1; NHexGly = CCCCCCNCC(=O)O; Nlys = NCCCCNCC(=O)O

What was measured:
RAW 264.7 cells = settings: for cytotoxicity against RAW 264.7 cells / cell viability: 64 mg/L; for cell viability: two independent experiments in triplicate; for cytotoxic activity: RAW 264.7 macrophages, as summarised in the discussion
M. tuberculosis H37Rv = settings: 7 days, CFU enumeration, three independent experiments

Row | SMILES | cytotoxicity against RAW 264.7 cells (RAW 264.7 cells; 24 h, MTT) | cell viability (RAW 264.7 cells; 24 h, MTT, RAW 264.7) [%] | cytotoxic activity (RAW 264.7 cells) [%] | reduction in cell viability (RAW 264.7 cells; 32 mg/L, 24 h, MTT, RAW 264.7) [%] | killing of H37Rv (M. tuberculosis H37Rv; 2 × MIC (16 mg/L)) [%] | killing of H37Rv (M. tuberculosis H37Rv; 4 × MIC (32 mg/L)) [%]
1 | CCCCCCNCC(=O)N(CC(=O)N(CCCCN)CC(N)=O)[C@@H](C)c1ccccc1 [BM 1] | did not show cytotoxicity | > 80 | < 20 |  |  | 
2 | CCCCCCNCC(=O)N(CC(=O)N(CCCCN)CC(=O)N(CCCCCC)CC(=O)N(CC(=O)N(CCCCN)CC(=O)N(CCCCCC)CC(=O)N(CC(=O)N(CCCCN)CC(N)=O)[C@@H](C)c1ccccc1)[C@@H](C)c1ccccc1)[C@@H](C)c1ccccc1 [BM 3] (H-[NHexGly][Nspe][Nlys][NHexGly][Nspe][Nlys][NHexGly][Nspe][Nlys]-NH2) |  |  |  | 50 |  | 
3 | CCCCCCNCC(=O)N(CC(=O)N(CCCCN)CC(=O)N(CCCCCC)CC(=O)N(CC(=O)N(CCCCN)CC(N)=O)[C@@H](C)c1ccccc1)[C@@H](C)c1ccccc1 [BM 2] (H-[NHexGly][Nspe][Nlys][NHexGly][Nspe][Nlys]-NH2) | did not show cytotoxicity | > 80 | < 20 |  | > 99.9 | > 99.9
